According to US7425576B2, “Compounds as inhibitors of hepatitis C virus NS3 serine protease” (Schering Corporation, priority 2004, dated 2008):

Target: Recombinant heterodimeric HCV NS3/NS4A protease (strain 1a) (Hepatitis C virus genotype 1a, UniProt P27958)
Assay: Spectrophotometric assay for HCV protease inhibitory activity (chromogenic ester substrates)
Type: biochemical
Text: The present invention relates to novel HCV protease inhibitors. This utility can be manifested in their ability to inhibit the HCV NS2/NS4a serine protease.
Assay for HCV Protease Inhibitory Activity:
Spectrophotometric Assay: Spectrophotometric assay for the HCV serine protease can be performed on the inventive compounds by following the procedure described by R. Zhang et al, Analytical Biochemistry, 270 (1999) 268-275, the disclosure of which is incorporated herein by reference. The assay based on the proteolysis of chromogenic ester substrates is suitable for the continuous monitoring of HCV NS3 protease activity. The substrates are derived from the P side of the NS5A-NS5B junction sequence (Ac-DTEDVVX(Nva), where X=A or P) whose C-terminal carboxyl groups are esterified with one of four different chromophoric alcohols (3- or 4-nitrophenol, 7-hydroxy-4-methyl-coumarin, or 4-phenylazophenol). Illustrated below are the synthesis, characterization and application of these novel spectrophotometric ester substrates to high throughput screening and detailed kinetic evaluation of HCV NS3 protease inhibitors.
Protein concentrations are determined by the Biorad dye method using recombinant HCV protease standards previously quantified by amino acid analysis. Prior to assay initiation, the enzyme storage buffer (50 mM sodium phosphate pH 8.0, 300 mM NaCl, 10% glycerol, 0.05% lauryl maltoside and 10 mM DTT) is exchanged for the assay buffer (25 mM MOPS pH 6.5, 300 mM NaCl, 10% glycerol, 0.05% lauryl maltoside, 5 μM EDTA and 5 μM DTT) utilizing a Biorad Bio-Spin P-6 prepacked column.
Protease Assay: HCV protease assays are performed at 30° C. using a 200 μl reaction mix in a 96-well microtiter plate. Assay buffer conditions (25 mM MOPS pH 6.5, 300 mM NaCl, 10% glycerol, 0.05% lauryl maltoside, 5 μM EDTA and 5 μM DTT) are optimized for the NS3/NS4A heterodimer (D. L. Sali et al, ibid.)). Typically, 150 μl mixtures of buffer, substrate and inhibitor are placed in wells (final concentration of DMSO≦4% v/v) and allowed to preincubate at 30° C. for approximately 3 minutes. Fifty μls of prewarmed protease (12 nM, 30° C.) in assay buffer, is then used to initiate the reaction (final volume 200 μl).The plates are monitored over the length of the assay (60 minutes) for change in absorbance at the appropriate wavelength (340 nm for 3-Np and HMC, 370 nm for PAP, and 400 nm for 4-Np) using a Spectromax Plus microtiter plate reader equipped with a monochrometer (acceptable results can be obtained with plate readers that utilize cutoff filters). Proteolytic cleavage of the ester linkage between the Nva and the chromophore is monitored at the appropriate wavelength against a no enzyme blank as a control for non-enzymatic hydrolysis. The evaluation of substrate kinetic parameters is performed over a 30-fold substrate concentration range (˜6-200 μM). Initial velocities are determined using linear regression and kinetic constants are obtained by fitting the data to the Michaelis-Menten equation using non-linear regression analysis (Mac Curve Fit 1.1, K. Raner). Turnover numbers (kcat) are calculated assuming the enzyme is fully active.
Evaluation of Inhibitors and Inactivators: The inhibition constants (Ki) for the competitive inhibitors Ac-D-(D-Gla)-L-I-(Cha)-C—OH (27), Ac-DTEDVVA(Nva)-OH and Ac-DTEDVVP(Nva)-OH are determined experimentally at fixed concentrations of enzyme and substrate by plotting vo/vi vs. inhibitor concentration ([I]o) according to the rearranged Michaelis-Menten equation for competitive inhibition kinetics: vo/vi=1+[I]o/(Ki(1+[S]o/Km)), where vo is the uninhibited initial velocity, vi is the initial velocity in the presence of inhibitor at any given inhibitor concentration ([I]o) and [S]o is the substrate concentration used.

| SMILES | Ki (Table 3, Ki* range class) | Ki (Table 6, numeric Ki*) | Ki (Table 1, Ki* range class) |
| --- | --- | --- | --- |
| COC[C@@H](NC(=O)N[C@H](C(=O)N1C[C@H]2[C@@H]([C@H]1C(=O)NC(CC1CCC1)C(=O)C(N)=O)C2(C)C)C1(C)CCCCC1)C(C)(C)C (stereo partly shown) [Example 1655] | < 75 nM | 24 nM |  |
| C=CCNC(=O)C(=O)C(CCC(F)(F)F)NC(=O)[C@@H]1[C@@H]2[C@H](CN1C(=O)[C@@H](NC(=O)N[C@H](COC)C(C)(C)C)C1(C)CCCC1)C2(C)C (stereo partly shown) [Example 1661] | 75 to 250 nM |  |  |
| COC[C@@H](NC(=O)N[C@H](C(=O)N1C[C@H]2[C@@H]([C@H]1C(=O)NC(CC1CC1)C(=O)C(N)=O)C2(C)C)C1(C)CCCCC1)C(C)(C)C (stereo partly shown) [Example 1654] | < 75 nM | 12 nM |  |
| C=CCNC(=O)C(=O)C(CCC)NC(=O)[C@@H]1[C@@H]2[C@H](CN1C(=O)[C@@H](NC(=O)N[C@H](COC(=O)NC(C)(C)C)C(C)(C)C)C1CCCCC1)C2(C)C (stereo partly shown) [Example 1057] |  |  | < 75 nM |
| C=CCNC(=O)C(=O)C(CCC)NC(=O)[C@@H]1[C@@H]2[C@H](CN1C(=O)[C@@H](NC(=O)N[C@H](COC(=O)NC)C(C)(C)C)C(C)(C)C)C2(C)C (stereo partly shown) [Example 1059] |  |  | < 75 nM |
| CC(C)(C)[C@H](NC(=O)N[C@H](COCc1ccccc1)C(C)(C)C)C(=O)N1C[C@H]2[C@@H]([C@H]1C(=O)NC(CC1CCC1)C(=O)C(N)=O)C2(C)C (stereo partly shown) [Example 1619] | 75 to 250 nM |  |  |
| CC(C)[C@@H](COC(=O)NCC1CC1)NC(=O)N[C@H](C(=O)N1C[C@H]2[C@@H]([C@H]1C(=O)NC(CC1CCC1)C(=O)C(N)=O)C2(C)C)C(C)(C)C (stereo partly shown) [Example 1020] |  |  | < 75 nM |
| CCNC(=O)OC[C@@H](NC(=O)N[C@H](C(=O)N1C[C@H]2[C@@H]([C@H]1C(=O)NC(CC1CCC1)C(=O)C(N)=O)C2(C)C)C(C)(C)C)C(C)(C)C (stereo partly shown) [Example 1076] |  |  | < 75 nM |
| CC(C)(C)[C@H](NC(=O)NC1(C(OCOCc2ccccc2)c2ccccc2)CCCCC1)C(=O)N1C[C@H]2[C@@H]([C@H]1C(=O)NC(CC1CC1)C(=O)C(N)=O)C2(C)C (stereo partly shown) [Example 1641] | < 75 nM |  |  |
| CNC(=O)OC[C@@H](NC(=O)N[C@H](C(=O)N1C[C@H]2[C@@H]([C@H]1C(=O)NC(CC1CCC1)C(=O)C(N)=O)C2(C)C)C1Cc2ccccc2C1)C(C)(C)C (stereo partly shown) [Example 1042] |  |  | < 75 nM |
| CC(C)(C)OC[C@@H](NC(=O)N[C@H](C(=O)N1C[C@H]2[C@@H]([C@H]1C(=O)NC(CC1CCC1)C(=O)C(N)=O)C2(C)C)C1(C)CCCCC1)C(C)(C)C (stereo partly shown) [Example 1678] | 75 to 250 nM |  |  |
| CC(C)[C@@H](COC(=O)NC(C)(C)C)NC(=O)N[C@H](C(=O)N1C[C@H]2[C@@H]([C@H]1C(=O)NC(CC1CCC1)C(=O)C(N)=O)C2(C)C)C1Cc2ccccc2C1 (stereo partly shown) [Example 1010] |  |  | < 75 nM |
| C=CCNC(=O)C(=O)C(CCCC)NC(=O)[C@@H]1[C@@H]2[C@H](CN1C(=O)[C@@H](NC(=O)N[C@H](COC)C(C)(C)C)C1(C)CCCCC1)C2(C)C (stereo partly shown) [Example 1649] | < 75 nM |  |  |
| C=CCNC(=O)C(=O)C(CCCC)NC(=O)[C@@H]1[C@@H]2[C@H](CN1C(=O)[C@@H](NC(=O)N[C@H](COC)C(C)C)C1(C)CCCCC1)C2(C)C (stereo partly shown) [Example 1650] | 75 to 250 nM |  |  |
| COC[C@@H](NC(=O)N[C@H](C(=O)N1C[C@H]2[C@@H]([C@H]1C(=O)NC(CC1CC1)C(=O)C(N)=O)C2(C)C)C1Cc2ccccc2C1)C(C)(C)C (stereo partly shown) [Example 1630] | < 75 nM |  |  |
| COC[C@@H](NC(=O)N[C@H](C(=O)N1C[C@H]2[C@@H]([C@H]1C(=O)NC(CC1CCC1)C(=O)C(N)=O)C2(C)C)C1(C)CCCC1)C(C)(C)C (stereo partly shown) [Example 1659] | < 75 nM |  |  |
| C=CCNC(=O)C(=O)C(CCC)NC(=O)[C@@H]1[C@@H]2[C@H](CN1C(=O)[C@@H](NC(=O)N[C@H](COC(=O)N(C)C)C(C)(C)C)C(C)(C)C)C2(C)C (stereo partly shown) [Example 1051] |  |  | < 75 nM |

| SMILES | Ki (Table 3, Ki* range class) | Ki (Table 6, numeric Ki*) | Ki (Table 1, Ki* range class) |
| --- | --- | --- | --- |
| C#CCCC(NC(=O)[C@@H]1[C@@H]2[C@H](CN1C(=O)[C@@H](NC(=O)NC1(COC(C)(C)C)CCCCC1)C1(C)CCCCC1)C2(C)C)C(=O)C(=O)NCC=C (stereo partly shown) [Example 1680] | < 75 nM |  |  |
| CCNC(=O)OC[C@@H](NC(=O)N[C@H](C(=O)N1C[C@H]2[C@@H]([C@H]1C(=O)NC(CC1CC1)C(=O)C(N)=O)C2(C)C)C1(C)CCCCC1)C(C)(C)C (stereo partly shown) [Example 1088] |  |  | < 75 nM |
| C=CCNC(=O)C(=O)C(CC1CC1)NC(=O)[C@@H]1[C@@H]2[C@H](CN1C(=O)[C@@H](NC(=O)N[C@H](COC(=O)NC(C)C)C(C)(C)C)C1CCCC1)C2(C)C (stereo partly shown) [Example 1087] |  |  | < 75 nM |
| CCNC(=O)OC[C@@H](NC(=O)N[C@H](C(=O)N1C[C@H]2[C@@H]([C@H]1C(=O)NC(CC1CC1)C(=O)C(=O)NC)C2(C)C)C1Cc2ccccc2C1)C(C)(C)C (stereo partly shown) [Example 1078] |  |  | 75 to 250 nM |
| C=CCNC(=O)C(=O)C(CCC)NC(=O)[C@@H]1[C@@H]2[C@H](CN1C(=O)[C@@H](NC(=O)N[C@H](COC(=O)NC(C)(C)C)C(C)(C)C)C1Cc3ccccc3C1)C2(C)C (stereo partly shown) [Example 1031] |  |  | < 75 nM |
| COC[C@@H](NC(=O)N[C@H](C(=O)N1C[C@H]2[C@@H]([C@H]1C(=O)NC(CC1CC1)C(=O)C(N)=O)C2(C)C)C1(C)CCCCC1)C(C)C (stereo partly shown) [Example 1656] | < 75 nM |  |  |
| C=CCNC(=O)C(=O)C(CCC(F)(F)F)NC(=O)[C@@H]1[C@@H]2[C@H](CN1C(=O)[C@@H](NC(=O)N[C@H](COC)C(C)(C)C)C1Cc3ccccc3C1)C2(C)C (stereo partly shown) [Example 1665] | 75 to 250 nM |  |  |
| C=CCNC(=O)C(=O)C(CCC)NC(=O)[C@@H]1[C@@H]2[C@H](CN1C(=O)[C@@H](NC(=O)N[C@H](COC(=O)NCC)C(C)(C)C)C(C)(C)C)C2(C)C (stereo partly shown) [Example 1075] |  |  | < 75 nM |
| C=CCNC(=O)C(=O)C(CCC)NC(=O)[C@@H]1[C@@H]2[C@H](CN1C(=O)[C@@H](NC(=O)N[C@H](COC(=O)NCC)C(C)(C)C)C1(C)CCCCC1)C2(C)C (stereo partly shown) [Example 1092] |  |  | < 75 nM |
| C#CCCC(NC(=O)[C@@H]1[C@@H]2[C@H](CN1C(=O)[C@@H](NC(=O)N[C@H](COC(=O)NCC)C(C)(C)C)C1(C)CCCCC1)C2(C)C)C(=O)C(=O)NCC=C (stereo partly shown) [Example 1090] |  | 9 nM | < 75 nM |
| CCC[C@@](C)(COC)NC(=O)N[C@H](C(=O)N1C[C@H]2[C@@H]([C@H]1C(=O)NC(CC1CCC1)C(=O)C(N)=O)C2(C)C)C1(C)CCCCC1 (stereo partly shown) [Example 1673] | 75 to 250 nM |  |  |
| CCCC(NC(=O)[C@@H]1[C@@H]2[C@H](CN1C(=O)[C@@H](NC(=O)N[C@H](COC(=O)N(C)C)C(C)(C)C)C1Cc3ccccc3C1)C2(C)C)C(=O)C(N)=O (stereo partly shown) [Example 1036] |  |  | < 75 nM |
| C#CCCC(NC(=O)[C@@H]1[C@@H]2[C@H](CN1C(=O)[C@@H](NC(=O)N[C@H](COC(=O)NCC)C(C)(C)C)C1Cc3ccccc3C1)C2(C)C)C(=O)C(=O)NCC=C (stereo partly shown) [Example 1073] |  |  | < 75 nM |
| C#CCCC(NC(=O)[C@@H]1[C@@H]2[C@H](CN1C(=O)[C@@H](NC(=O)N[C@H](COC(=O)NCC)C1CCCCC1)C1CCCCC1)C2(C)C)C(=O)C(=O)NCC=C (stereo partly shown) [Example 1101] |  |  | < 75 nM |
| COC[C@@H](NC(=O)N[C@H](C(=O)N1C[C@H]2[C@@H]([C@H]1C(=O)NC(CC1CC1)C(=O)C(N)=O)C2(C)C)C1CCCCC1)C(C)(C)C (stereo partly shown) [Example 1670] | < 75 nM |  |  |
| C#CCNC(=O)C(=O)C(CCCC)NC(=O)[C@@H]1[C@@H]2[C@H](CN1C(=O)[C@@H](NC(=O)N[C@H](COC(=O)NCC)C(C)(C)C)C1Cc3ccccc3C1)C2(C)C (stereo partly shown) [Example 1065] |  |  | < 75 nM |
| C=CCNC(=O)C(=O)C(CCC)NC(=O)[C@@H]1[C@@H]2[C@H](CN1C(=O)[C@@H](NC(=O)N[C@H](COC)C(C)(C)C)C1Cc3ccccc3C1)C2(C)C (stereo partly shown) [Example 1663] | 75 to 250 nM |  |  |
